Reference: the supplement of paper PMC4166925
± gives the standard deviation of the averaged measurements. In all, about 33,000 sequences were measured (“E-score (dimensionless, -0.5 to 0.5)”: median about -0.049, highest 2% from about 0.37 on). This is one part of the list.

What follows are sequences tested on T1, PmTbr T-box DNA-binding domain (GST fusion) (assay: PBM E-score of 8-mer (E-score (dimensionless, -0.5 to 0.5)); Tbr is Tbrain of the sea star Patiria miniata (Pm) or the sea urchin Strongylocentrotus purpuratus (Sp); higher = stronger binding preference; most listed sequences are background and not binding sites). Conditions: the construct has about 5 more residues each side.
T1 sequence: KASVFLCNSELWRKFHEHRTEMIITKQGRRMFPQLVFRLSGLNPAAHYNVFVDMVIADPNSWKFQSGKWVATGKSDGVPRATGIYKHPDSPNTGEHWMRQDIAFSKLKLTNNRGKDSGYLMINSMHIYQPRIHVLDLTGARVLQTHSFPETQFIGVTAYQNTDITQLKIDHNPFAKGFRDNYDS
Procedure, shortened: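 Each ungapped 8-mer received an enrichment E-score from the Universal PBM Analysis Suite, averaged over duplicate arrays. The proteins were Tbr T-box DNA-binding domains, covering the whole T-box plus about five flanking residues, fused to GST and expressed in BL21 E. coli at 20 °C before glutathione affinity purification. Universal Agilent oligonucleotide arrays were made double-stranded by primer extension and incubated with 200 nM protein in PBS (pH 7.5). The arrays were then scanned and quantified, and every 8-mer was scored from probe intensities.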

Sequence | PBM E-score of 8-mer
GATCATTA | -0.321 ± 0.022
AGCTGGGC | -0.222 ± 0.056
GCAGTCAA | 0.084 ± 0.045
AGATCGAC | -0.146 ± 0.011
TCCACACA | 0.267 ± 0.02
AAATTCGA | -0.0418 ± 0.0085
GGCATTGA | -0.129 ± 0.038
GCCAAGGC | -0.021 ± 0.053
CTAAAAAG | 0.0405 ± 0.075
CAGTGTCG | 0.289 ± 0.0095
ATGCACTG | -0.2 ± 0.043
AATATTTA | -0.16 ± 0.087
ACCAAAGA | -0.0522 ± 0.0041
TAGCAATA | 0.0863 ± 0.0094
ATTGGGAG | -0.226 ± 0.044
CACTACTC | -0.096 ± 0.085
AGAACAAT | -0.125 ± 0.035
CGTATAGC | 0.011 ± 0.034
GTCGTAAA | -0.0603 ± 0.06
AAAGTGTG | 0.435 ± 0.012
AAAACTCC | -0.143 ± 0.087
CCAACACC | 0.443 ± 0.011
ATCTTGCA | 0.00605 ± 0.059
CCGGACAC | 0.168 ± 0.065

Sequence | PBM E-score of 8-mer
GAAGCACC | -0.131 ± 0.0077
CCGTGCAG | -0.116 ± 0.008
GACTACTC | -0.09932 ± 0.00083
ATCGGATC | -0.176 ± 0.078
AGGCGTTA | 0.4486 ± 0.0021
CAATCCAA | 0.14 ± 0.034
ACGTGTAC | -0.0192 ± 0.045
CTCGCCGA | 0.00819 ± 0.089
AGTATAAT | -0.0999 ± 0.092
TACTACCA | -0.37 ± 0.019
CAAAGATA | -0.0148 ± 0.024
CGTCCAGA | -0.109 ± 0.044
GCATATCC | 0.0235 ± 0.028
GAACGCGA | 0.203 ± 0.025
CGAATTCG | 0.19 ± 0.0055
ATATGTAC | -0.225 ± 0.029
CGCGCACC | 0.206 ± 0.0087
AGAGCAGA | -0.172 ± 0.022
ACCGTATA | -0.165 ± 0.004
CAGAGGCA | -0.215 ± 0.071
AGACGGAT | -0.228 ± 0.095
ATAGAAAA | -0.0831 ± 0.057
AAGCCGCT | -0.0516 ± 0.058
AGATACTG | -0.154 ± 0.011

Sequence | PBM E-score of 8-mer
ACTCTCAC | 0.3138 ± 0.0026
CATAATAA | -0.206 ± 0.013
AATTGCGT | -0.0764 ± 0.07
AATATTGC | -0.00643 ± 0.055
CCTGAATA | 0.036 ± 0.032
CACACAGC | 0.262 ± 0.0099
CCTTGTCA | 0.26 ± 0.015
AGCGCTCA | 0.053 ± 0.024
AAATGTGA | 0.277 ± 0.044
AATGACGA | 0.00527 ± 0.012
GATTCATA | -0.227 ± 0.11
CAAAGAGG | 0.105 ± 0.051
CTAGGAGC | -0.0098 ± 0.016
CAATAGCC | -0.0484 ± 0.13
AATCGACT | -0.225 ± 0.022
CCTAGCAA | 0.128 ± 0.069
CCTCGCTC | -0.00398 ± 0.058
TGGTTCAA | -0.06 ± 0.043
ACGTGACT | 0.0526 ± 0.086
GACACGAC | 0.154 ± 0.017
CGACCGCA | 0.113 ± 0.022
AATGACTA | -0.103 ± 0.031
AAGATGAT | 0.0937 ± 0.069
AGCTGTAG | -0.152 ± 0.02

Sequence | PBM E-score of 8-mer
ATGTGGGG | -0.0613 ± 0.0012
GCCCCCAA | -0.0898 ± 0.038
ACATTGGT | 0.0988 ± 0.052
GGTAGAAC | -0.0423 ± 0.0042
GAGGTGGC | 0.372 ± 0.036
ACTATAAG | 0.000855 ± 0.077
TGGATTAA | -0.24 ± 0.021
CGCTGACA | 0.273 ± 0.04
GGCTTGCA | -0.164 ± 0.0094
CTCCCGTA | -0.1898 ± 0.001
AGCCGAAA | -0.144 ± 0.044
GTGCTAAC | 0.453 ± 0.0072
AATTTACC | -0.241 ± 0.011
ATCATATA | -0.078 ± 0.0047
CCACAATC | 0.0332 ± 0.025
CTCCTATA | -0.0626 ± 0.15
GCACTTAC | 0.178 ± 0.015
TAAGGACA | -0.164 ± 0.12
GAACTGAA | -0.228 ± 0.021
AGTCCGGC | -0.12 ± 0.06
CGTGCCTC | -0.0145 ± 0.032
CAGGAAGA | -0.0995 ± 0.043
